This is one part of the list.

Assay in all cases: glycan array binding signal (z-score within array); higher = stronger binding
Holding throughout (conditions): glycan notation: IUPAC condensed, linker removed

The target of test [1] is Gal(b1-4)GlcNAc(b1-2)Man(a1-6)[Man(a1-3)]Man(b1-4)GlcNAc(b1-4)GlcNAc. Put shortly: (§1)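 The binding signal is a Z-score computed within each array and averaged over linkers. Arrays of the same protein sequence at different concentrations or buffers were also averaged together. Data originate from 3228 arrays in the Consortium for Functional Glycomics database, kept only where the protein sequence was available.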

The target in test [2] is Gal(b1-4)GlcNAc(b1-2)[Gal(b1-4)GlcNAc(b1-4)]Man(a1-3)[Gal(b1-4)GlcNAc(b1-2)Man(a1-6)]Man(b1-4)GlcNAc(b1-4)GlcNAc. Put shortly:
as §1

The target of test [3] is Gal(b1-4)GlcNAc(b1-2)[Gal(b1-4)GlcNAc(b1-4)]Man(a1-3)[Gal(b1-4)GlcNAc(b1-2)[Gal(b1-4)GlcNAc(b1-6)]Man(a1-6)]Man(b1-4)GlcNAc(b1-4)GlcNAc. Summed up: as §1
The target in test [4] is Gal(b1-4)GlcNAc(b1-2)[Gal(b1-4)GlcNAc(b1-4)]Man(a1-3)[GlcNAc(b1-4)][Gal(b1-4)GlcNAc(b1-2)Man(a1-6)]Man(b1-4)GlcNAc(b1-4)GlcNAc. Put shortly: as §1
The target in test [5] is Gal(b1-4)GlcNAc(b1-2)[Gal(b1-4)GlcNAc(b1-4)]Man(a1-3)[GlcNAc(b1-4)][Gal(b1-4)GlcNAc(b1-2)[Gal(b1-4)GlcNAc(b1-6)]Man(a1-6)]Man(b1-4)GlcNAc(b1-4)GlcNAc. Summed up: as §1
Test [6] concerns the target Gal(b1-4)GlcNAc(b1-2)[Gal(b1-4)GlcNAc(b1-6)]Man(a1-6)[Gal(b1-4)GlcNAc(b1-2)Man(a1-3)]Man(b1-4)GlcNAc(b1-4)GlcNAc. Put shortly: as §1
The target in test [7] is Gal(b1-4)GlcNAc(b1-2)[Gal(b1-4)GlcNAc(b1-6)]Man(a1-6)[Gal(b1-4)GlcNAc(b1-2)Man(a1-3)]Man(b1-4)GlcNAc(b1-4)[Fuc(a1-6)]GlcNAc. Put shortly: as §1
Test [8] addresses Gal(b1-4)GlcNAc(b1-2)[Gal(b1-4)GlcNAc(b1-6)]Man(a1-6)[GlcNAc(b1-4)][Gal(b1-4)GlcNAc(b1-2)Man(a1-3)]Man(b1-4)GlcNAc(b1-4)GlcNAc. Put shortly:
as §1

Test [9] deals with Gal(b1-4)GlcNAc(b1-2)[Gal(b1-4)GlcNAc(b1-6)]Man(a1-6)[GlcNAc(b1-4)][Gal(b1-4)GlcNAc(b1-2)[Gal(b1-4)GlcNAc(b1-4)]Man(a1-3)]Man(b1-4)GlcNAc(b1-4)[Fuc(a1-6)]GlcNAc. Put shortly: as §1
The target of test [10] is Gal(b1-4)GlcNAc(b1-3)Gal(b1-3)GalNAc. Summed up: as §1
Test [11] has as its target Gal(b1-4)GlcNAc(b1-3)Gal(b1-3)GlcNAc. Summed up:
as §1

Test [12] addresses Gal(b1-4)GlcNAc(b1-3)Gal(b1-4)Glc. Summed up:
as §1

The target in test [13] is Gal(b1-4)GlcNAc(b1-3)Gal(b1-4)GlcNAc. Put shortly:
as §1

In test [14] the target is Gal(b1-4)GlcNAc(b1-3)Gal(b1-4)GlcNAc(b1-2)Man(a1-3)[Gal(b1-4)GlcNAc(b1-3)Gal(b1-4)GlcNAc(b1-2)Man(a1-6)]Man(b1-4)GlcNAc(b1-4)GlcNAc. Summed up:
as §1

Test [15] has as its target Gal(b1-4)GlcNAc(b1-3)Gal(b1-4)GlcNAc(b1-2)Man(a1-3)[Gal(b1-4)GlcNAc(b1-3)Gal(b1-4)GlcNAc(b1-2)Man(a1-6)]Man(b1-4)GlcNAc(b1-4)[Fuc(a1-6)]GlcNAc. Put shortly: as §1
Test [16] concerns the target Gal(b1-4)GlcNAc(b1-3)Gal(b1-4)GlcNAc(b1-2)[Gal(b1-4)GlcNAc(b1-3)Gal(b1-4)GlcNAc(b1-6)]Man(a1-6)[Gal(b1-4)GlcNAc(b1-3)Gal(b1-4)GlcNAc(b1-2)Man(a1-3)]Man(b1-4)GlcNAc(b1-4)GlcNAc. Summed up: as §1
For test [17], the target named is Gal(b1-4)GlcNAc(b1-3)Gal(b1-4)GlcNAc(b1-2)[Gal(b1-4)GlcNAc(b1-3)Gal(b1-4)GlcNAc(b1-6)]Man(a1-6)[Gal(b1-4)GlcNAc(b1-3)Gal(b1-4)GlcNAc(b1-2)Man(a1-3)]Man(b1-4)GlcNAc(b1-4)[Fuc(a1-6)]GlcNAc. Summed up: as §1
In test [18] the target is Gal(b1-4)GlcNAc(b1-3)Gal(b1-4)GlcNAc(b1-3)Gal(b1-4)GlcNAc. Summed up: as §1
Test [19] deals with Gal(b1-4)GlcNAc(b1-3)Gal(b1-4)GlcNAc(b1-3)Gal(b1-4)GlcNAc(b1-2)Man(a1-3)[Gal(b1-4)GlcNAc(b1-3)Gal(b1-4)GlcNAc(b1-3)Gal(b1-4)GlcNAc(b1-2)Man(a1-6)]Man(b1-4)GlcNAc(b1-4)GlcNAc. Summed up:
as §1

Test [20] has as its target Gal(b1-4)GlcNAc(b1-3)Gal(b1-4)GlcNAc(b1-3)Gal(b1-4)GlcNAc(b1-2)Man(a1-3)[Gal(b1-4)GlcNAc(b1-3)Gal(b1-4)GlcNAc(b1-3)Gal(b1-4)GlcNAc(b1-2)Man(a1-6)]Man(b1-4)GlcNAc(b1-4)[Fuc(a1-6)]GlcNAc. Put shortly: as §1
Test [21] concerns the target Gal(b1-4)GlcNAc(b1-3)Gal(b1-4)GlcNAc(b1-3)Gal(b1-4)GlcNAc(b1-2)[Gal(b1-4)GlcNAc(b1-3)Gal(b1-4)GlcNAc(b1-3)Gal(b1-4)GlcNAc(b1-6)]Man(a1-6)[Gal(b1-4)GlcNAc(b1-3)Gal(b1-4)GlcNAc(b1-3)Gal(b1-4)GlcNAc(b1-2)Man(a1-3)]Man(b1-4)GlcNAc(b1-4)[Fuc(a1-6)]GlcNAc. Summed up:
as §1

Test [22] addresses Gal(b1-4)GlcNAc(b1-3)Gal(b1-4)GlcNAc(b1-3)Gal(b1-4)GlcNAc(b1-3)Gal(b1-4)GlcNAc(b1-2)Man(a1-3)[Gal(b1-4)GlcNAc(b1-3)Gal(b1-4)GlcNAc(b1-3)Gal(b1-4)GlcNAc(b1-3)Gal(b1-4)GlcNAc(b1-2)Man(a1-6)]Man(b1-4)GlcNAc(b1-4)GlcNAc. Put shortly:
as §1

B1: HPL (Tachypleus tridentatus) (protein)
chain: MEDDCTCVTDRSLEGKLMKHPSTPAVYQILDGCRRLVPNPPTYNNIYKNWECIQSNILEKLLCKCDSLSNGAELIKGSGDTVYLLSNGVKRPIADPETFNGFCFDWNKIKTYSDIVINSLSTGPIIIIKHHHHHH
On to B1, for which the “glycan array binding signal (z-score)” value in test [1] is -0.286; in [2], -0.141; in test [3] it was -0.393; in test [4], 5.11; in test [5], 0.026; in test [6], 0.308. For the same molecule, the “glycan array binding signal (z-score)” value in test [7] is -0.141; in test [8], -0.058; in [9], -0.047; in [10] it was -0.372; in test [11], 0.152; in [12], -0.233. The “glycan array binding signal (z-score)” value is -0.345 in test [13]; 0.115 in test [14]; -0.061 in test [15]; 2.19 in [16]; -0.007 in [17]; -0.229 in test [18]. Moreover, the “glycan array binding signal (z-score)” value in test [19] turned out to be 0.447; in [20] it was 0.169; in test [21], 0.189; in [22], 0.062.

(Values after the supplement of paper PMC8728848.)
